# According to paper PMC4705382:
# By UniProt entry, the sequences of proteins in these tests, tags left out.
# UniProt Q8IXI2: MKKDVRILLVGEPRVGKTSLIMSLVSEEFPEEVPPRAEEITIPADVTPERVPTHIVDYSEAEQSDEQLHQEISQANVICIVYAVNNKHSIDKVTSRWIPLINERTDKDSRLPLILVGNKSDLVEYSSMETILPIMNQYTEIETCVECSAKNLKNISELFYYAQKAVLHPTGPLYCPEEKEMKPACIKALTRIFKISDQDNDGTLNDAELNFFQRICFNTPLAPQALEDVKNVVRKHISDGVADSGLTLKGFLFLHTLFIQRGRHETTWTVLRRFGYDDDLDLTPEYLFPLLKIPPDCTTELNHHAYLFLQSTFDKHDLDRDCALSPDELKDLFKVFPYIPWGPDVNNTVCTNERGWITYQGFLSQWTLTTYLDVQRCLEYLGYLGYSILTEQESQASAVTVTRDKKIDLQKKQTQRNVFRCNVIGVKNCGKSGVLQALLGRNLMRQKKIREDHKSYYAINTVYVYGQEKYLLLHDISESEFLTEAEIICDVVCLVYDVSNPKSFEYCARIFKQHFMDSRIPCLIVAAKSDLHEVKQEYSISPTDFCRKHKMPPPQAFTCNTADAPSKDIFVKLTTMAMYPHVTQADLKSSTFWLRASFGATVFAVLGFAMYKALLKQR
# These are yes or no findings as the source states them, for the method shown. Binding seen in cells or lysates may run through a third protein. Some results given as binding are weak or reduced against the parent protein; the word gives no strength. For some assays here: Sequences can lack the tags named with a protein.
# T1: ^GFPTRAK2 (mouse) (UniProt Q6P9N8)
# T1 sequence: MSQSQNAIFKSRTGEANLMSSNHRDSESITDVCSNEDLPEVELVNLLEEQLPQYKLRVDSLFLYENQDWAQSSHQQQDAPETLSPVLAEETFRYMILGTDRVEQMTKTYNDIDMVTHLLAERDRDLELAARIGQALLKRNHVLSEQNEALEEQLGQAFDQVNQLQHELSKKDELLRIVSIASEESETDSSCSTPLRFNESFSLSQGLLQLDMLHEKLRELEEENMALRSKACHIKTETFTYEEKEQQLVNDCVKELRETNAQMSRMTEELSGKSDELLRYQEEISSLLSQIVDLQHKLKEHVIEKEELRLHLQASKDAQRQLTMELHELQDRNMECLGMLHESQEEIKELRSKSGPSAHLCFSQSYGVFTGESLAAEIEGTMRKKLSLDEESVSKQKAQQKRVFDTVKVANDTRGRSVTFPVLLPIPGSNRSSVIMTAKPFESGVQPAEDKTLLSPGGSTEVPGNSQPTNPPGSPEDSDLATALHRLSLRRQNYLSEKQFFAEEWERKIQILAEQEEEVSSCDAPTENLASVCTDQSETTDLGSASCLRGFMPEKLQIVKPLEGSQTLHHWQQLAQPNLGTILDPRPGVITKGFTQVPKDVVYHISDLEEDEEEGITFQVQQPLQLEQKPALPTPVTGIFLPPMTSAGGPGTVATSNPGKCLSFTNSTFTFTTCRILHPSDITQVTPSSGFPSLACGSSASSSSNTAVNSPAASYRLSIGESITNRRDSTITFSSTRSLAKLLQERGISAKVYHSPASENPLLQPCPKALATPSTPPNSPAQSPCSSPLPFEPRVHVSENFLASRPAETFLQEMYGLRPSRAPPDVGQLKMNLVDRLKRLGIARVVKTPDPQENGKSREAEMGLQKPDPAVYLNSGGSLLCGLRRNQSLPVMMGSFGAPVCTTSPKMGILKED
# T2: Untagged human DISC1 (human) (UniProt Q9NRI5)
# T2 sequence: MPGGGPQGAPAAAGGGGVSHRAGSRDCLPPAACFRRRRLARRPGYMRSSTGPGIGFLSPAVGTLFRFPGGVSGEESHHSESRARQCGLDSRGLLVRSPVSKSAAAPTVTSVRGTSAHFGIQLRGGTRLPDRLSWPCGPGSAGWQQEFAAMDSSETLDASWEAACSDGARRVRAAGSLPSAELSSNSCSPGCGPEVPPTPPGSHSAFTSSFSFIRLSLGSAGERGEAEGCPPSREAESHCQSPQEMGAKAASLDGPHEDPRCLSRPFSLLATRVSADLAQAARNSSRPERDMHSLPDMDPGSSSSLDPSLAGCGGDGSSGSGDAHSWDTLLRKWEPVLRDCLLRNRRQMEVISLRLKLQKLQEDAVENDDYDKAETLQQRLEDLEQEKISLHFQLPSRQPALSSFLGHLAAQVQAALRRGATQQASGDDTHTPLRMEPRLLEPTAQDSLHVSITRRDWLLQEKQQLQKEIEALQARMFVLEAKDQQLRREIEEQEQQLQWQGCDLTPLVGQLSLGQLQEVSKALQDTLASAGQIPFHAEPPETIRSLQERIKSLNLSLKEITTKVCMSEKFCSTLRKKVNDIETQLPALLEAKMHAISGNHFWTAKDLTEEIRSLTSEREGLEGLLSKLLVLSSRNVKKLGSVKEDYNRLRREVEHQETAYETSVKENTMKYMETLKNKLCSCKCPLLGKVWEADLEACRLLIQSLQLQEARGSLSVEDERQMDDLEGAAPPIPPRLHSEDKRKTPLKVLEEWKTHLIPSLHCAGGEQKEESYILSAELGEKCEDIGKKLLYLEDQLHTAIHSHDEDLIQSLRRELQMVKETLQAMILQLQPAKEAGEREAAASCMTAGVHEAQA
# Key:
# [1] = molecular target: ^mycMiro1 (UniProt Q8IXI2); assay: co-IP; rabbit anti-Myc beads (Sigma) on lysates of co-transfected COS7 cells; lysis buffer 50 mM HEPES pH 7.5, 0.5% Triton X-100, 150 mM NaCl, 1 mM EDTA; Western blot
# [2] = molecular target: T1, ^GFPTRAK2 (mouse); assay: co-IP; GFP trap beads (Chromotek) on lysates of co-transfected COS7 cells; lysis buffer 50 mM HEPES pH 7.5, 0.5% Triton X-100, 150 mM NaCl, 1 mM EDTA; Western blot
# [3] = molecular target: endogenous Miro1 (SH-SY5Y cells) (human (endogenous in SH-SY5Y)) (UniProt Q8IXI2); assay: proximity ligation; Duolink on fixed SH-SY5Y cells; anti-Rhot1 (HPA010687) and anti-DISC1 (14F2), both 1:200; anti-DISC1 alone as control
# [4] = molecular target: T2, Untagged human DISC1 (human); assay: co-IP; DISC1 immunoprecipitated, TRAK2 detected; data not shown
binding [1],binding [2],binding [3],binding [4],Binder
binds,binds,–,–,"^HADISC1-(1–301) (domain or fragment, UniProt Q9NRI5 1-301) MPGGGPQGAPAAAGGGGVSHRAGSRDCLPPAACFRRRRLARRPGYMRSSTGPGIGFLSPAVGTLFRFPGGVSGEESHHSESRARQCGLDSRGLLVRSPVSKSAAAPTVTSVRGTSAHFGIQLRGGTRLPDRLSWPCGPGSAGWQQEFAAMDSSETLDASWEAACSDGARRVRAAGSLPSAELSSNSCSPGCGPEVPPTPPGSHSAFTSSFSFIRLSLGSAGERGEAEGCPPSREAESHCQSPQEMGAKAASLDGPHEDPRCLSRPFSLLATRVSADLAQAARNSSRPERDMHSLPDMDPGS"
binds,binds,–,–,"^HADISC1 150–854 (domain or fragment, UniProt Q9NRI5 150-854) MDSSETLDASWEAACSDGARRVRAAGSLPSAELSSNSCSPGCGPEVPPTPPGSHSAFTSSFSFIRLSLGSAGERGEAEGCPPSREAESHCQSPQEMGAKAASLDGPHEDPRCLSRPFSLLATRVSADLAQAARNSSRPERDMHSLPDMDPGSSSSLDPSLAGCGGDGSSGSGDAHSWDTLLRKWEPVLRDCLLRNRRQMEVISLRLKLQKLQEDAVENDDYDKAETLQQRLEDLEQEKISLHFQLPSRQPALSSFLGHLAAQVQAALRRGATQQASGDDTHTPLRMEPRLLEPTAQDSLHVSITRRDWLLQEKQQLQKEIEALQARMFVLEAKDQQLRREIEEQEQQLQWQGCDLTPLVGQLSLGQLQEVSKALQDTLASAGQIPFHAEPPETIRSLQERIKSLNLSLKEITTKVCMSEKFCSTLRKKVNDIETQLPALLEAKMHAISGNHFWTAKDLTEEIRSLTSEREGLEGLLSKLLVLSSRNVKKLGSVKEDYNRLRREVEHQETAYETSVKENTMKYMETLKNKLCSCKCPLLGKVWEADLEACRLLIQSLQLQEARGSLSVEDERQMDDLEGAAPPIPPRLHSEDKRKTPLKVLEEWKTHLIPSLHCAGGEQKEESYILSAELGEKCEDIGKKLLYLEDQLHTAIHSHDEDLIQSLRRELQMVKETLQAMILQLQPAKEAGEREAAASCMTAGVHEAQA"

# The remaining lines, values behind:
Binder,binding [1],binding [2],binding [3],binding [4]
"^HADISC1-(313–854) (domain or fragment, UniProt Q9NRI5 313-854) GGDGSSGSGDAHSWDTLLRKWEPVLRDCLLRNRRQMEVISLRLKLQKLQEDAVENDDYDKAETLQQRLEDLEQEKISLHFQLPSRQPALSSFLGHLAAQVQAALRRGATQQASGDDTHTPLRMEPRLLEPTAQDSLHVSITRRDWLLQEKQQLQKEIEALQARMFVLEAKDQQLRREIEEQEQQLQWQGCDLTPLVGQLSLGQLQEVSKALQDTLASAGQIPFHAEPPETIRSLQERIKSLNLSLKEITTKVCMSEKFCSTLRKKVNDIETQLPALLEAKMHAISGNHFWTAKDLTEEIRSLTSEREGLEGLLSKLLVLSSRNVKKLGSVKEDYNRLRREVEHQETAYETSVKENTMKYMETLKNKLCSCKCPLLGKVWEADLEACRLLIQSLQLQEARGSLSVEDERQMDDLEGAAPPIPPRLHSEDKRKTPLKVLEEWKTHLIPSLHCAGGEQKEESYILSAELGEKCEDIGKKLLYLEDQLHTAIHSHDEDLIQSLRRELQMVKETLQAMILQLQPAKEAGEREAAASCMTAGVHEAQA",no binding,no binding,–,–
"endogenous DISC1 (SH-SY5Y cells) (protein, UniProt Q9NRI5 1-854) MPGGGPQGAPAAAGGGGVSHRAGSRDCLPPAACFRRRRLARRPGYMRSSTGPGIGFLSPAVGTLFRFPGGVSGEESHHSESRARQCGLDSRGLLVRSPVSKSAAAPTVTSVRGTSAHFGIQLRGGTRLPDRLSWPCGPGSAGWQQEFAAMDSSETLDASWEAACSDGARRVRAAGSLPSAELSSNSCSPGCGPEVPPTPPGSHSAFTSSFSFIRLSLGSAGERGEAEGCPPSREAESHCQSPQEMGAKAASLDGPHEDPRCLSRPFSLLATRVSADLAQAARNSSRPERDMHSLPDMDPGSSSSLDPSLAGCGGDGSSGSGDAHSWDTLLRKWEPVLRDCLLRNRRQMEVISLRLKLQKLQEDAVENDDYDKAETLQQRLEDLEQEKISLHFQLPSRQPALSSFLGHLAAQVQAALRRGATQQASGDDTHTPLRMEPRLLEPTAQDSLHVSITRRDWLLQEKQQLQKEIEALQARMFVLEAKDQQLRREIEEQEQQLQWQGCDLTPLVGQLSLGQLQEVSKALQDTLASAGQIPFHAEPPETIRSLQERIKSLNLSLKEITTKVCMSEKFCSTLRKKVNDIETQLPALLEAKMHAISGNHFWTAKDLTEEIRSLTSEREGLEGLLSKLLVLSSRNVKKLGSVKEDYNRLRREVEHQETAYETSVKENTMKYMETLKNKLCSCKCPLLGKVWEADLEACRLLIQSLQLQEARGSLSVEDERQMDDLEGAAPPIPPRLHSEDKRKTPLKVLEEWKTHLIPSLHCAGGEQKEESYILSAELGEKCEDIGKKLLYLEDQLHTAIHSHDEDLIQSLRRELQMVKETLQAMILQLQPAKEAGEREAAASCMTAGVHEAQA",–,–,binds,–
"^GFPTRAK2 (protein, UniProt Q6P9N8 1-913) MSQSQNAIFKSRTGEANLMSSNHRDSESITDVCSNEDLPEVELVNLLEEQLPQYKLRVDSLFLYENQDWAQSSHQQQDAPETLSPVLAEETFRYMILGTDRVEQMTKTYNDIDMVTHLLAERDRDLELAARIGQALLKRNHVLSEQNEALEEQLGQAFDQVNQLQHELSKKDELLRIVSIASEESETDSSCSTPLRFNESFSLSQGLLQLDMLHEKLRELEEENMALRSKACHIKTETFTYEEKEQQLVNDCVKELRETNAQMSRMTEELSGKSDELLRYQEEISSLLSQIVDLQHKLKEHVIEKEELRLHLQASKDAQRQLTMELHELQDRNMECLGMLHESQEEIKELRSKSGPSAHLCFSQSYGVFTGESLAAEIEGTMRKKLSLDEESVSKQKAQQKRVFDTVKVANDTRGRSVTFPVLLPIPGSNRSSVIMTAKPFESGVQPAEDKTLLSPGGSTEVPGNSQPTNPPGSPEDSDLATALHRLSLRRQNYLSEKQFFAEEWERKIQILAEQEEEVSSCDAPTENLASVCTDQSETTDLGSASCLRGFMPEKLQIVKPLEGSQTLHHWQQLAQPNLGTILDPRPGVITKGFTQVPKDVVYHISDLEEDEEEGITFQVQQPLQLEQKPALPTPVTGIFLPPMTSAGGPGTVATSNPGKCLSFTNSTFTFTTCRILHPSDITQVTPSSGFPSLACGSSASSSSNTAVNSPAASYRLSIGESITNRRDSTITFSSTRSLAKLLQERGISAKVYHSPASENPLLQPCPKALATPSTPPNSPAQSPCSSPLPFEPRVHVSENFLASRPAETFLQEMYGLRPSRAPPDVGQLKMNLVDRLKRLGIARVVKTPDPQENGKSREAEMGLQKPDPAVYLNSGGSLLCGLRRNQSLPVMMGSFGAPVCTTSPKMGILKED",–,–,–,binds
